The whole screen tested about 150,000 compounds, of which about 540 (0.36%) showed an effect of 50% or more. The list shows a part of the results.
Test system: Plasmodium falciparum
Experiment: Primary screen in NF54 nanoGlo assay, in single point, at 2uM, 72h; a lower Z score goes with more inhibition
Type: functional, Erythrocyte
Settings: timepoint 72 hour

Row | SMILES | % Inhibition | Z score | % Inhibition (2 µM)
1 | CCCN(CC(=O)N(C)C1CC1)CC(F)(F)F | -13% | 1.97 | 
2 | COc1cccc(OC)c1CC(=O)Nc1ccccc1-c1ncc[nH]1 | 6% | -0.79 | 
3 | CNS(=O)(=O)N1CCC(C(=O)NC[C@H](c2cccnc2)C(C)C)CC1 | -11% | 1.27 | 
4 | CN(c1nccs1)S(=O)(=O)c1cccs1 | -9% | 1.65 | 
5 | Cc1ccc(OCCN(C)C(=O)NC[C@H]2CCCOC2)c(C)c1 | -3% | 0.54 | 
6 | O=C(c1ncoc1C1CC1)N1CCc2sccc2C1 | 4% | -0.61 | 
7 | CC(C)OCC(=O)N1CCC[C@@]2(CCC(=O)N(Cc3cccnc3)C2)C1 | -7% | 0.86 | 
8 | CCc1cc(C)c(C(=O)NC[C@H]2CCC[C@@H](CO)C2)o1 | -19% | 2.23 | 
9 | C[C@@H]1[C@H](N(C)CCO)CCN1C(=O)Nc1ccc(C(C)(C)C)nc1 | -7% | 0.98 | 
10 | Cc1cc(NC(=O)C2CC2c2ccccc2)no1 (stereo unspecified) | -2% | 0.24 | 
11 | C[C@H]1CCC[C@@H](NCCc2ccccc2)CCC/C=C/c2cc(O)cc(O)c2C(=O)O1 | 73% | -6.47 | 
12 | Cc1cccc(O[C@H]2CCN(C(=O)CC(F)(F)F)C2)n1 | -10% | 1.97 | 
13 | COCCN1C(=O)[C@@H]2C(Cc3ccc(O)cc3)NC3(C(=O)Nc4c(C)cc(C)cc43)[C@@H]2C1=O (stereo partly specified) | -3% | 0.41 | 
14 | CN(CCN[C@H](c1ccccc1)c1c[nH]cn1)C(=O)OC(C)(C)C | 19% | -2.38 | 
15 | CNc1nc(NCCCOCC2CC2)nc(NCCCOCC2CC2)n1 | 0% | 0.01 | 
16 | Cc1c[nH]c(CN(C)CCC(=O)Nc2nccs2)n1 | -8% | 1 | 
17 | CCc1nc([C@@H](O)CC(C)C)n(-c2ccncc2)n1 | -7% | 1.34 | 
18 | CCN1CCN(C(=O)c2cnc(-c3ccc(OC)cc3)nc2Oc2ccc(OC)cc2)CC1 | -10% | 1.11 | 
19 | COc1cccc(CN(Cc2nc(C(=O)NCc3ccco3)co2)[C@@H](C)C(C)C)c1 | 3% | -0.43 | 
20 | COc1ccc2nc(C3CC3)cc(C(=O)Nc3c(C)n(C)n(-c4ccccc4)c3=O)c2c1 | 8% | -0.95 | 
21 | CC(C)n1ccnc1CNc1ccc(C(=O)NC2CCOCC2)cc1 | 9% | -1.31 | 
22 | Cc1ccc(C(=O)N2CCS(=O)(=O)C[C@H]2C2CCC2)c(Cl)c1 | -3% | 0.48 | 

Row | SMILES | % Inhibition | Z score | % Inhibition (2 µM)
23 | COc1ccc(CNC(=O)c2cnn(-c3nccc(-c4cccs4)n3)c2C)cc1 | -3% | 0.48 | 
24 | O=S(=O)(c1ccc(F)cc1)N1CCN(Cc2csnn2)CC1 | -7% | 0.6 | 
25 | C=CCCO[C@@H](C)C(=O)N1CCC(=O)NCCN(c2nccn3nnnc23)CC1 | -12% | 2.26 | 
26 | c1ccc2c(c1)Cc1cc3ccccc3nc1-2 | -3% | 0.53 | 
27 | Cc1cc(C)c2c(C)c(C(=O)Nc3ccc(S(=O)(=O)Nc4nccc(C)n4)cc3)oc2c1 | -14% | 1.81 | 
28 | CCc1ccc2c(c1)c(-c1ccc(Cl)cc1)c(C(=O)NCc1ccc(OC)cc1)n2C | 7% | -0.88 | 
29 | Cc1cccc(C(=O)Oc2ccc(-n3ccnc3)cc2)c1 | 44% | -5.69 | 
30 | Cc1ccc2cc(CN(Cc3cccc(O)c3)C3CC3)c(=O)[nH]c2c1 | -10% | 1.8 | 
31 | O=C(CCc1ccco1)NCc1ccco1 | -10% | 1.09 | 
32 | CCCN(CCC)C(=O)c1ccccc1NS(=O)(=O)CCC | -4% | 0.51 | 
33 | CNS(=O)(=O)c1ccc(-c2nccn2[C@@H](C)c2nncn2C)cc1 | 8% | -0.99 | 
34 | CCCOc1ccc2nc(NC(=O)c3sc(COc4cccc(C)c4)nc3C)sc2c1 | -23% | 2.02 | 
35 | COCCN(Cc1ccco1)c1nc2ccccc2c2nc(C)nn12 | -2% | 0.26 | 
36 | Cc1ccc(S(=O)(=O)Nc2cc(C(=O)O)ccc2N(C)CCc2c(C)noc2C)c(C)c1 | -13% | 1.29 | 
37 | Cc1nc(N)sc1C(=O)OC(C)C | -1% | 0.19 | 
38 | O=c1cc2n(c(=O)[nH]1)CC(c1ccccc1)=NN2 |  |  | -4%
39 | O=C(CNC1CCCCC1)Nc1nc(-c2ccccc2)cs1 | -10% | 1.19 | 
40 | Cc1cc(N)ccc1-c1nc2cc(F)ccc2n1C1CC1 | -2% | 0.4 | 
41 | CO[C@@H](C)CS(=O)(=O)Nc1nonc1NC(=O)C(C)(C)C | -7% | 1.09 | 
42 | c1ccn2c([C@H]3CCCN(Cc4ccoc4)C3)nnc2c1 | -14% | 2.72 | 
43 | CCc1ccc(CN(CC)Cc2cnn(CC)c2)s1 | 8% | -1.1 | 
44 | CCn1nc(C)c(-c2cccc(C(=O)NCCCN3CCCC3=O)c2)c1C | 2% | -0.32 | 

Row | SMILES | % Inhibition | Z score | % Inhibition (2 µM)
45 | CN1CCN(C(=O)Cn2ccc(NCC3(C)CCOCC3)n2)CC1 | -1% | 0.22 | 
46 | Cc1ncc(C(=O)N[C@@H](C)c2nc(CC(C)C)no2)c(O)n1 | -1% | 0.19 | 
47 | Cc1nc(-c2ccc(-c3ccn[nH]3)cc2)n(-c2ccccn2)n1 | 7% | -0.95 | 
48 | CC[C@@](C)(C(=O)NC1CCCC1)N(C(=O)CNC(=O)c1ccccc1)c1c(C)n(C)n(-c2ccccc2)c1=O | -1% | 0.2 | 
49 | Cc1noc(C)c1C[C@H](C)C(=O)N(C)C | -5% | 0.82 | 
50 | Cc1cc(=O)c(C(=O)N[C@@H](CC(C)C)C(N)=O)c(C)[nH]1 | -2% | 0.31 | 
51 | O=C1C[C@@H](C(=O)N2CCCCC2)CCN1 | 1% | -0.06 | 
52 | O=C(NCCn1cncn1)c1cccc(F)c1F | -6% | 1.07 | 
53 | Cc1cc(C(=O)OCCNc2cccnn2)ccc1F | -5% | 0.45 | 
54 | CC[C@H](O)Cn1cc(-c2nc(-c3cc(C)ccn3)no2)nn1 | -38% | 4.04 | 
55 | Cc1cnccc1CCNCC12CC(CN1C(=O)OC(C)(C)C)C2 | -6% | 0.55 | 
56 | CC(C)c1cccc(OCC(=O)NC2CCC(Oc3cnccn3)CC2)c1 (stereo unspecified) | -8% | 1.14 | 
57 | CCOC(=O)c1sc([C@H](C)Nc2ncc(Cl)cn2)nc1C | -2% | 0.21 | 
58 | CO[C@H]1COCC[C@@H]1NS(=O)(=O)c1c(C)cc(C)c2nonc12 | -8% | 0.86 | 
59 | CCOC(=O)N1N=C(C)C[C@]1(O)c1cccnc1 | -21% | 2.29 | 
60 | COc1ccc(Nc2cc(C(C)C)nc3nc(-c4cccnc4)nn23)cc1 | -5% | 0.74 | 
61 | Cc1ncc(CNC(=O)N(CCC(F)(F)F)C2CCC2)s1 | 30% | -3.44 | 
62 | CC(=O)N1CCC(Cc2ccc(C(=O)N3CCc4ccccc4C3)cc2)CC1 | 2% | -0.2 | 
63 | CCCCOc1ccc(-c2cc3c4nnc(CCC(=O)NC5CCCC5)n4ccn3n2)cc1 | 7% | -0.97 | 
64 | COc1ccc(NC2CC3CCC2C3)cc1OC (stereo unspecified) | -6% | 1.19 | 
65 | Cc1ccc([C@@](C)(O)CNS(=O)(=O)c2cnn(C)c2)o1 | 0% | 0.06 | 
66 | COc1nccnc1O[C@H]1CCCN(C(=O)Cc2ccccc2)C1 | -5% | 0.88 | 

Row | SMILES | % Inhibition | Z score | % Inhibition (2 µM)
67 | COc1ccc2cc3c(nc2c1)N(C(=O)C(C)(C)C)CC3 | -3% | 0.29 | 
68 | C[C@@H](CNc1ncnc2ccsc12)CN1CCCC1=O | -3% | 0.26 | 
69 | Cn1cncc1C1CCN(C(=O)Cc2ccc(Cl)cc2)CC1 | 0% | 0.03 | 
70 | CCOc1ccc(-c2nc(CS(=O)(=O)Cc3coc(-c4ccccc4)n3)cs2)cc1OC | 6% | -0.7 | 
71 | Cc1ccc(C(=O)NCc2ccc(F)cc2)c(C2CCN(CC3CC3)CC2)n1 | -2% | 0.29 | 
72 | Cc1ccnc(NS(=O)(=O)c2cc(C)sc2C)n1 | 1% | -0.06 | 
73 | CCNC(=O)C(C)N1C(=O)NC(C)(c2ccc3c(c2)OCO3)C1=O (stereo unspecified) | 3% | -0.37 | 
74 | CC[C@H](OC)C(=O)N1Cc2nc(C)[nH]c(=O)c2C1 | -3% | 0.43 | 
75 | CCn1nccc1C(=O)N1CC(c2nc(CCOCc3ccccc3)no2)C1 | -6% | 0.84 | 
76 | O=C(NCCc1nccs1)[C@@H]1CCCCn2nnnc21 | -15% | 1.6 | 
77 | Cc1csc2ncnc(NCc3cccnc3N3CCOCC3)c12 | 4% | -0.71 | 
78 | CCn1nc(CC(C)C)cc1C(=O)N(C)CCc1ccccn1 | -3% | 0.61 | 
79 | Cc1noc(-c2cccnc2N2CCCO[C@@H](C)C2)n1 | -13% | 1.58 | 
80 | O=C1C[C@@H](c2ccccc2)N(C(=O)CNC(=O)c2ccco2)CCCCCN1 | -18% | 2.36 | 
81 | Cc1ccsc1[C@H]1CCN(C2CCN(Cc3ccccn3)CC2)C[C@@H]1O | 0% | -0.04 | 
82 | Cc1ccc(S(=O)(=O)Nc2cccc(-c3nc(-c4ccccc4C)co3)c2)cc1 | -11% | 1.42 | 
83 | O=C(CCN[C@@H](CO)C(=O)O)c1ccc(Br)cc1 | -4% | 0.5 | 
84 | c1csc(-c2nnc(CN3CC[C@]4(CCOC4)C3)o2)c1 | -7% | 0.88 | 
85 | Cc1ccc(S(=O)(=O)c2cn(C[C@H]3CCCO3)c(=O)n(-c3ccccc3)c2=O)cc1 | 3% | -0.34 | 
86 | COc1ccccc1-c1cn[nH]c1-c1ccc(OCc2cc(C)ccc2C)cc1O | 0% | 0 | 

— ChEMBL document CHEMBL4888484, “Replenishing the malaria drug discovery pipeline: Screening and hit evaluation of the MMV Hit Generation Library 1 (HGL1) against asexual blood stage Plasmodium falciparum ,using a nano luciferase reporter read-out” (2022)
